# In all, about 33,000 sequences were measured (“E-score (-0.5 to 0.5)”: median about -0.054, highest 2% from about 0.35 on). Some of the results follow.
# Biological target: T1, Stb5 (UniProt P38699)
# T1 sequence: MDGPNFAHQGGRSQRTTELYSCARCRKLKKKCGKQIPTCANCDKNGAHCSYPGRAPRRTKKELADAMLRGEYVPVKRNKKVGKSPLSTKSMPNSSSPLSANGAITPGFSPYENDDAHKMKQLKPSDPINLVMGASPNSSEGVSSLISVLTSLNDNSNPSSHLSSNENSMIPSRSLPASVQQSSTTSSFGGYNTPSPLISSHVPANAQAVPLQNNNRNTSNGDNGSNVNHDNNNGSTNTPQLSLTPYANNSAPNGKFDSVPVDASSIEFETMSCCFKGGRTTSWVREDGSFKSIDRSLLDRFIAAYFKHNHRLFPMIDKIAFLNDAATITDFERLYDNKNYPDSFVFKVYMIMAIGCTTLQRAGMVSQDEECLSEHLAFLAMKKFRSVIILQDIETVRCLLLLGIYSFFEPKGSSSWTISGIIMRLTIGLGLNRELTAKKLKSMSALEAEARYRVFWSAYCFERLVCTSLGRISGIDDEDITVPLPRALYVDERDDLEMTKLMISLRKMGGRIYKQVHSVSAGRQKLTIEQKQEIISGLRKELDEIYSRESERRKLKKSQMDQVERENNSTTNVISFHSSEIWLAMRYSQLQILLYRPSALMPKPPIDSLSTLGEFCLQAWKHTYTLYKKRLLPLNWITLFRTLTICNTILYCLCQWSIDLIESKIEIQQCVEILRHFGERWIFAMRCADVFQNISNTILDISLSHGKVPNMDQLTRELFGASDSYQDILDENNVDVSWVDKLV
# Test: PBM E-score (8-mer binding enrichment) (E-score (-0.5 to 0.5)); higher = stronger / more preferred TF binding; most listed sequences are background and not binding sites
# Settings: protein concentration: 200 nM; construct: GST-full length
# Summary of the method: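 Yeast transcription factors, full-length or as DNA-binding domains, were expressed with a GST tag using PURExpress in vitro transcription/translation. At about 100-200 nM they were applied to universal all-10-mer Agilent arrays, double-stranded by primer extension on fresh or once-stripped slides. Fluorescent anti-GST detected bound protein, and masliner normalised the scans. E-scores for ungapped eight-base words, pooled with reverse complements, came from the Universal PBM Analysis Suite.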
row,Sequence,PBM E-score
1,AGTAAAGG,-0.00499
2,CACGCGAG,-0.19
3,GAGCAGAC,-0.239
4,CACATGCC,0.00879
5,CTTGGGGA,-0.174
6,ACTCGCAT,-0.0876
7,CCGTAAGG,0.141
8,GTTAGATA,-0.147
9,ACAGCTGC,-0.14
10,ATGATTGA,-0.161
11,ATAACCTG,-0.226
12,ACCACACA,-0.14
13,GGAGGGCC,-0.00738
14,CTGACCTA,-0.0591
15,ATATGGTC,-0.0686
16,CCACGCAC,-0.0634
17,CTCGCTTA,0.00719
18,ATCTGCCA,-0.118
19,AAATTGTT,-0.0308
20,ATAACTTA,-0.0529
21,GAGTTGTA,-0.0359
22,CCCCGCCG,0.381
23,AGTGGAAT,0.0263
24,CGACTGAG,-0.318
25,CATTAACA,0.00043

row,Sequence,PBM E-score
1,CCTAACGC,0.171
2,AGCTGAAT,-0.183
3,CATCAGTA,-0.204
4,CACTGTTA,-0.161
5,CGTTCCTC,0.0313
6,AACCGAGG,-0.25
7,ACCGCTGC,0.364
8,CATTGTAA,-0.144
9,AACCGCAG,0.00062
10,ACGACTCC,-0.136
11,CATCATGA,-0.109
12,GGCAAGGA,0.0232
13,CAGCACTG,-0.172
14,AAGAGAGC,-0.253
15,CCGGTAAA,0.294
16,ATAGATAA,0.034
17,ACTCGACC,-0.144
18,CACTGTAG,-0.25
19,GCCACAAC,0.00768
20,CCACAGGC,-0.176
21,AGAGCGCC,0.0749
22,AGTACCGA,0.439
23,ACGAGCCA,-0.137
24,GATTGACC,0.121
25,GACTGATC,-0.0839

row,Sequence,PBM E-score
1,AGCCATCG,-0.12
2,AAGCCCGC,0.443
3,AGTCTAAT,-0.143
4,GATTGACA,-0.251
5,AGGGTCTG,-0.317
6,AGACATTC,-0.215
7,CCAAAGAA,-0.15
8,CAGACCAG,-0.23
9,CCTGTGCA,-0.144
10,CCTATCGC,0.174
11,ATACCTCG,-0.173
12,AAGCGGGC,0.234
13,ATGGCGCC,0.342
14,AGACGGCA,0.0979
15,TATGTCAA,-0.0285
16,CCGATCCG,0.342
17,AATCGCGA,-0.0351
18,CCATAAGC,0.144
19,AAGTCGCA,-0.155
20,AAGATAGG,-0.311
21,AAGGCCCG,0.359
22,ATTGGGGC,-0.0618
23,AGCATATG,-0.201
24,ACAAATCG,0.124
25,GTGAGCAA,-0.0477

row,Sequence,PBM E-score
1,GCGATGCC,-0.0106
2,CCCCTCAC,-0.231
3,CCTAGGAC,-0.177
4,GAGTCAGC,-0.0831
5,AGACATGA,-0.0806
6,GGAACTTA,0.258
7,GCTTCTGA,0.0129
8,ATTCACAC,-0.136
9,GCTACGCA,-0.123
10,AAGAGCGT,0.0561
11,CTCCGTGC,0.306
12,ACAGGGAC,-0.131
13,AGATAGAA,-0.122
14,ATCAACAG,0.00858
15,TAAACCCA,0.0551
16,CTTATCGA,-0.132
17,GGTATATA,0.214
18,AGCTCCAT,-0.125
19,GTCTATAA,0.0204
20,CATGAGGC,0.0421
21,ACACTATA,-0.0057
22,GGGATTAA,0.335
23,ATAAGGAA,-0.0897
24,GTCATCTA,-0.179
25,AGAAATCT,-0.0538

row,Sequence,PBM E-score
1,GACATGCC,0.0122
2,GTGTTGCA,0.0279
3,AGCCCTAC,-0.0947
4,CTATTAAC,-0.0133
5,CAATAGCG,0.156
6,TGGGAGAA,-0.227
7,ACATCCGC,0.339
8,ATCAGCCG,0.118
9,ACTCCCAG,-0.0146
10,ACAGGATG,0.00656
11,CATCCGAC,0.288
12,ACAGGAGA,-0.0747
13,ACTCCCAT,-0.125
14,GGCCTCCC,-0.0321
15,CTTCTGGA,-0.0613
16,AGAATTCA,-0.208
17,ACTGCAGT,-0.267
18,AGGGCCAG,-0.371
19,TGCTTCCA,-0.214
20,ACACATTG,0.0442
21,ACGAACAT,0.00195
22,CGCTGTAA,0.117
23,ATTTTCGG,0.269
24,ATTGACTG,-0.127
25,TTATACAA,0.101

row,Sequence,PBM E-score
1,CATCTCCA,-0.305
2,CCGGGACG,0.14
3,CCAGCACC,-0.0517
4,CCTTACCA,-0.171
5,AATGTTAT,-0.204
6,ACCACCCC,-0.084
7,ACTTAAAG,-0.0538
8,CTGTTAAC,0.0903
9,CACCTCTA,0.0684
10,CGATCAGC,0.0183
11,AAGGTTAG,-0.126
12,AGATCCCG,0.265
13,GGCCAGTA,-0.0306
14,CGTATTTA,0.0683
15,CAGGGCCC,0.00851
16,ACTCTCAA,-0.353
17,AGGCTACA,-0.26
18,CCTTAATC,0.109
19,CGCTGCTC,0.0409
20,AAATTCGC,0.00141
21,CCGACAGG,0.319
22,CAATACAG,-0.0499
23,ATCGCGTG,-0.0373
24,CTACAATC,-0.0982
25,CTTTGGAA,-0.0283

row,Sequence,PBM E-score
1,CGGATATA,0.443
2,CAACGCCC,0.0198
3,CGGCTTGA,-0.0077
4,TAAACAAA,0.00384
5,GACATAAC,0.244
6,CACAGAGC,-0.194
7,AGATTTTG,-0.137
8,AGTGTAGG,-0.0934
9,ACTCAAGT,-0.222
10,TGCGGACA,0.286
11,GGGCTACA,-0.0162
12,GCGCTTAC,0.215
13,AACAACAT,-0.175
14,CACCCGCA,0.104
15,ACAAAGGC,-0.0256
16,AATGTGCG,0.144
17,AGAACATC,-0.136
18,CTAACTTC,-0.186
19,AGCTTCTG,-0.0547
20,GGCACTGA,0.00323
21,AACGTGCC,0.0152
22,GCTTCAAA,-0.0474
